# The other results are listed elsewhere or left out.
# B1: Gal-9-hFc (Mus musculus), O08573-2 (protein)
# chain: MALFSAQSPYINPIIPFTGPIQGGLQEGLQVTLQGTTKSFAQRFVVNFQNSFNGNDIAFHFNPRFEEGGYVVCNTKQNGQWGPEERKMQMPFQKGMPFELCFLVQRSEFKVMVNKKFFVQYQHRVPYHLVDTIAVSGCLKLSFITFQTQNFRPAHQAPMAQTTIHMVHSTPGQMFSTPGIPPVVYPTPAYTIPFYTPIPNGLYPSKSIMISGNVLPDATRFHINLRCGGDIAFHLNPRFNENAVVRNTQINNSWGQEERSLLGRMPFSRGQSFSVWIICEGHCFKVAVNGQHMCEYYHRLKNLQDINTLEVAGDIQLTHVQT
# Legend:
# Experiment in all cases: glycan array binding signal (z-score within array); higher = stronger binding
# Conditions in all cases: glycan notation: IUPAC condensed, linker removed
# [1] = biological target: Gal(b1-3)GlcNAc(b1-2)Man(a1-3)[Gal(b1-3)GlcNAc(b1-2)Man(a1-6)]Man(b1-4)GlcNAc(b1-4)GlcNAc
# How it was run: (§1)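 Negative Z-scores can be read as non-binding. The Z-score is calculated within each array and then averaged across arrays of one protein sequence at different concentrations or buffers and across linkers. Arrays, 3228 in all, were curated from the Consortium for Functional Glycomics database and kept only where the protein sequence was available.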
# [2] = biological target: Gal(b1-3)GlcNAc(b1-2)Man(a1-3)[Gal(b1-3)GlcNAc(b1-2)Man(a1-6)]Man(b1-4)GlcNAc(b1-4)[Fuc(a1-6)]GlcNAc
# How it was run: as §1
# [3] = biological target: Gal(b1-3)GlcNAc(b1-2)Man(a1-3)[GlcNAc(b1-4)][Gal(b1-3)GlcNAc(b1-2)Man(a1-6)]Man(b1-4)GlcNAc(b1-4)GlcNAc
# How it was run: as §1
# [4] = biological target: Gal(b1-3)GlcNAc(b1-2)[Gal(b1-3)GlcNAc(b1-6)]Man(a1-6)[Gal(b1-3)GlcNAc(b1-2)Man(a1-3)]Man(b1-4)GlcNAc(b1-4)GlcNAc
# How it was run: as §1
# [5] = biological target: Gal(b1-3)GlcNAc(b1-3)Gal(b1-3)GlcNAc
# How it was run: as §1
# [6] = biological target: Gal(b1-3)GlcNAc(b1-3)Gal(b1-4)Glc
# How it was run: as §1
# [7] = biological target: Gal(b1-3)GlcNAc(b1-3)Gal(b1-4)GlcNAc
# How it was run: as §1
# [8] = biological target: Gal(b1-3)GlcNAc(b1-3)Gal(b1-4)GlcNAc(b1-2)Man(a1-3)[Gal(b1-3)GlcNAc(b1-3)Gal(b1-4)GlcNAc(b1-2)Man(a1-6)]Man(b1-4)GlcNAc(b1-4)GlcNAc
# How it was run: as §1
# [9] = biological target: Gal(b1-3)GlcNAc(b1-3)Gal(b1-4)GlcNAc(b1-2)[Gal(b1-3)GlcNAc(b1-3)Gal(b1-4)GlcNAc(b1-6)]Man(a1-6)[Gal(b1-3)GlcNAc(b1-3)Gal(b1-4)GlcNAc(b1-2)Man(a1-3)]Man(b1-4)GlcNAc(b1-4)[Fuc(a1-6)]GlcNAc
# How it was run: as §1
# [10] = biological target: Gal(b1-3)GlcNAc(b1-3)Gal(b1-4)GlcNAc(b1-3)Gal(b1-4)GlcNAc(b1-2)[Gal(b1-3)GlcNAc(b1-3)Gal(b1-4)GlcNAc(b1-3)Gal(b1-4)GlcNAc(b1-6)]Man(a1-6)[Gal(b1-3)GlcNAc(b1-3)Gal(b1-4)GlcNAc(b1-3)Gal(b1-4)GlcNAc(b1-2)Man(a1-3)]Man(b1-4)GlcNAc(b1-4)[Fuc(a1-6)]GlcNAc
# How it was run: as §1
# [11] = biological target: Gal(b1-3)GlcNAc(b1-3)Gal(b1-4)GlcNAc(b1-6)[Gal(b1-3)GlcNAc(b1-3)]Gal(b1-4)Glc
# How it was run: as §1
# [12] = biological target: Gal(b1-3)GlcNAc(b1-3)Gal(b1-4)[Fuc(a1-3)]GlcNAc
# How it was run: as §1
# [13] = biological target: Gal(b1-3)GlcNAc(b1-3)Gal(b1-4)[Fuc(a1-3)]GlcNAc(b1-6)[Gal(b1-3)GlcNAc(b1-3)]Gal(b1-4)Glc
# How it was run: as §1
# [14] = biological target: Gal(b1-3)GlcNAc(b1-3)GalNAc
# How it was run: as §1
# [15] = biological target: Gal(b1-3)GlcNAc(b1-6)Gal(b1-4)GlcNAc
# How it was run: as §1
# [16] = biological target: Gal(b1-3)GlcNAc(b1-6)GalNAc
# How it was run: as §1
# [17] = biological target: Gal(b1-3)GlcNAc(b1-6)[Gal(b1-3)]GalNAc
# How it was run: as §1
# Gal(b1-3)GlcNAc6S = biological target: Gal(b1-3)GlcNAc6S
# How it was run: as §1
# [18] = biological target: Gal(b1-3)[Fuc(a1-4)]GlcNAc
# How it was run: as §1
# [19] = biological target: Gal(b1-3)[Fuc(a1-4)]GlcNAc(b1-2)Man
# How it was run: as §1
# [20] = biological target: Gal(b1-3)[Fuc(a1-4)]GlcNAc(b1-2)Man(a1-3)[Gal(b1-3)[Fuc(a1-4)]GlcNAc(b1-2)Man(a1-6)]Man(b1-4)GlcNAc(b1-4)[Fuc(a1-6)]GlcNAc
# How it was run: as §1
# [21] = biological target: Gal(b1-3)[Fuc(a1-4)]GlcNAc(b1-3)Gal(b1-3)[Fuc(a1-4)]GlcNAc
# How it was run: as §1
# [22] = biological target: Gal(b1-3)[Fuc(a1-4)]GlcNAc(b1-3)Gal(b1-4)[Fuc(a1-3)]GlcNAc
# How it was run: as §1
# [23] = biological target: Gal(b1-3)[Fuc(a1-4)]GlcNAc(b1-6)GalNAc
# How it was run: as §1
# [24] = biological target: Gal(b1-3)[GlcNAc(b1-6)]GalNAc
# How it was run: as §1
# [25] = biological target: Gal(b1-3)[Neu5Ac(a2-6)]GalNAc
# How it was run: as §1
# [26] = biological target: Gal(b1-3)[Neu5Ac(a2-6)]GlcNAc(b1-4)Gal(b1-4)Glc
# How it was run: as §1
# [27] = biological target: Gal(b1-3)[Neu5Ac(b2-6)]GalNAc
# How it was run: as §1
# Gal(b1-4)Gal = biological target: Gal(b1-4)Gal
# How it was run: as §1
# [28] = biological target: Gal(b1-4)GalNAc(a1-3)[Fuc(a1-2)]Gal(b1-4)GlcNAc
# How it was run: as §1
# [29] = biological target: Gal(b1-4)GalNAc(b1-3)[Fuc(a1-2)]Gal(b1-4)GlcNAc
# How it was run: as §1
# Gal(b1-4)Glc = biological target: Gal(b1-4)Glc
# How it was run: as §1
# Gal(b1-4)Glc6S = biological target: Gal(b1-4)Glc6S
# How it was run: as §1
# Gal(b1-4)GlcNAc = biological target: Gal(b1-4)GlcNAc
# How it was run: as §1
# [30] = biological target: Gal(b1-4)GlcNAc(a1-6)Gal(b1-4)GlcNAc
# How it was run: as §1
# Gal(b1-4)GlcNAc(b1-2)Man = biological target: Gal(b1-4)GlcNAc(b1-2)Man
# How it was run: as §1
# [31] = biological target: Gal(b1-4)GlcNAc(b1-2)Man(a1-3)Man(b1-4)GlcNAc(b1-4)GlcNAc
# How it was run: as §1
binder,measurement,setting,value
B1,glycan array binding signal (z-score),[1],-0.022
same,glycan array binding signal (z-score),[2],-0.351
same,glycan array binding signal (z-score),[3],0.027
same,glycan array binding signal (z-score),[4],-0.333
same,glycan array binding signal (z-score),[5],0.085
same,glycan array binding signal (z-score),[6],-0.443
same,glycan array binding signal (z-score),[7],-0.359
same,glycan array binding signal (z-score),[8],-0.293
same,glycan array binding signal (z-score),[9],1.8
same,glycan array binding signal (z-score),[10],1.48
same,glycan array binding signal (z-score),[11],-0.448
same,glycan array binding signal (z-score),[12],-0.461
same,glycan array binding signal (z-score),[13],-0.599
same,glycan array binding signal (z-score),[14],-0.341
same,glycan array binding signal (z-score),[15],-0.362
same,glycan array binding signal (z-score),[16],-0.396
same,glycan array binding signal (z-score),[17],-0.142
same,glycan array binding signal (z-score),Gal(b1-3)GlcNAc6S,-0.189
same,glycan array binding signal (z-score),[18],-0.32
same,glycan array binding signal (z-score),[19],0.508
same,glycan array binding signal (z-score),[20],0.06
same,glycan array binding signal (z-score),[21],-0.533
same,glycan array binding signal (z-score),[22],-0.478
same,glycan array binding signal (z-score),[23],-0.078
same,glycan array binding signal (z-score),[24],-0.035
same,glycan array binding signal (z-score),[25],0.317
same,glycan array binding signal (z-score),[26],-0.501
same,glycan array binding signal (z-score),[27],-0.454
same,glycan array binding signal (z-score),Gal(b1-4)Gal,0.307
same,glycan array binding signal (z-score),[28],-0.493
same,glycan array binding signal (z-score),[29],-0.625
same,glycan array binding signal (z-score),Gal(b1-4)Glc,0.025
same,glycan array binding signal (z-score),Gal(b1-4)Glc6S,0.697
same,glycan array binding signal (z-score),Gal(b1-4)GlcNAc,-0.167
same,glycan array binding signal (z-score),[30],-0.601
same,glycan array binding signal (z-score),Gal(b1-4)GlcNAc(b1-2)Man,0.241
same,glycan array binding signal (z-score),[31],-0.294

# From the supplement of paper PMC8728848
